In all, about 310,000 compounds went through this assay and about 14,000 (4.5%) showed an effect of 50% or more. Effects have a minus sign here. The list shows a part of the results.

The source of these data is paper PMC4336329 (PLoS ONE, 2015).
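Note: peak tail current of the secondary pulse compared with the same well before compound.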

This experiment deals with human ether-à-go-go-related gene (hERG) potassium channel (human, UniProt Q12809). Briefly: primary screen, population patch clamp on CHO cells stably expressing hERG.
human ether-à-go-go-related gene (hERG) potassium channel, sequence (Q12809 whole entry, looked up): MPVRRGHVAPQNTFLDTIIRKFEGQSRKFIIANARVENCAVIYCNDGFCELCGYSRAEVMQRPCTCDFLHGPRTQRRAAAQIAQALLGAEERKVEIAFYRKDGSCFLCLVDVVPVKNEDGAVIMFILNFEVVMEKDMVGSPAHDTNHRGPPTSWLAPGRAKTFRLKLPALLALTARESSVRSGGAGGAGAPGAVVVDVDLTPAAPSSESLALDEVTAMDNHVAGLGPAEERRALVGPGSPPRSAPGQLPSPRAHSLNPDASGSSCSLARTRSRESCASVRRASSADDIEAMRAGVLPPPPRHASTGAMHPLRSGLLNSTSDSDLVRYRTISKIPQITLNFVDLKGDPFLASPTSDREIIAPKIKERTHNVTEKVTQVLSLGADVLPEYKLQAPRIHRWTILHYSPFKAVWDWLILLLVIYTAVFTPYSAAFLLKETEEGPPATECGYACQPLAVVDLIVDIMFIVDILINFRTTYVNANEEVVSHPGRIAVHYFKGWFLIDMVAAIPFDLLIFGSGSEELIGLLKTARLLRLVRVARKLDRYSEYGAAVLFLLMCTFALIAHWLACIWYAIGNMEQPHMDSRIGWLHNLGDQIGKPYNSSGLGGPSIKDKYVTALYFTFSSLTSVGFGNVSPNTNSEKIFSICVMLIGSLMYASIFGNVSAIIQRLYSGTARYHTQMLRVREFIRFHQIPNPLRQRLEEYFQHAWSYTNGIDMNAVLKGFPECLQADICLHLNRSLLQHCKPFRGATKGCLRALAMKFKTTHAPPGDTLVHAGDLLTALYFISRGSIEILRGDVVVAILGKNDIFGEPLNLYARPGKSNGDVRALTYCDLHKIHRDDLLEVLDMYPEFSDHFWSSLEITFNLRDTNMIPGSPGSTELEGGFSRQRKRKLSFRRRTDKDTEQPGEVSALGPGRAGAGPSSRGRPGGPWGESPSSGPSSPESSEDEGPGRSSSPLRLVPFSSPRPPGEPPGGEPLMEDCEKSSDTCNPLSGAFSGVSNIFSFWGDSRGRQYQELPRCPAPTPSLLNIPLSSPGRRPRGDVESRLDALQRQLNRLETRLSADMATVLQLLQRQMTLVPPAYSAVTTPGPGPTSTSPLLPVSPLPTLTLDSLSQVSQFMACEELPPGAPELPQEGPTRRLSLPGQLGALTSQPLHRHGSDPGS
As to `COc1ccc(-c2csc(NC(=O)CCS(=O)(=O)c3ccccc3)n2)c(OC)c1`, the “hERG current change (%, negative = inhibition) at 10uM” value came to 9.71%.

For `COC(=O)c1oc2ccc(Br)cc2c1-n1cccc1`, the “hERG current change (%, negative = inhibition) at 10uM” value is reported as 9.07%.

Consider `CC1(c2cccc(Br)c2)NC(=O)N(CC(=O)Nc2ccc(F)cc2)C1=O` (stereo not shown), for which the “hERG current change (%, negative = inhibition) at 10uM” value was -3.61%.

`S=C(c1ccc(N2CCCC2)cc1)N1CCCCC1`: the “hERG current change (%, negative = inhibition) at 10uM” value worked out at 2.75%.

As for `CCn1c(SCC(=O)N2CCCCC2)nc2c(c1=O)SC(C)C2` (stereo not shown), the “hERG current change (%, negative = inhibition) at 10uM” value came to 10.1%.

As for `COc1ccc(/C=N/N2CCOCC2)cc1O`, the “hERG current change (%, negative = inhibition) at 10uM” value came out at 8.19%.

As for `Cc1c(C)c(C)c(C(=O)CCc2cccc(NC(=O)CCC(=O)O)c2)c(C)c1C`, the “hERG current change (%, negative = inhibition) at 10uM” value came to 9.99%.

In the case of `N#C/C(=C\c1ccc2c(c1)OCCO2)C(=O)Nc1nccs1`, the “hERG current change (%, negative = inhibition) at 10uM” value worked out at 14.2%.

Regarding `Cc1cc([N+](=O)[O-])nn1CCCC(=O)Nc1cc(Oc2ccccc2)cc([N+](=O)[O-])c1`, the “hERG current change (%, negative = inhibition) at 10uM” value is reported as -2.84%.

On to `CCc1noc(C)c1C(=O)NNC(=O)c1cc(OC)cc(OC)c1`, for which the “hERG current change (%, negative = inhibition) at 10uM” value is 5.15%.

Consider `O=C(CC(C(=O)O)C1CCCO1)NCCc1ccc2c(c1)OCO2` (stereo not shown), for which the “hERG current change (%, negative = inhibition) at 10uM” value was -8.7%.

In the case of `COc1ccc2ccccc2c1/C=N/NC(=O)c1cccc(Br)c1`, the “hERG current change (%, negative = inhibition) at 10uM” value came out at 3.3%.

As to `CC(=O)NCC(=O)OCC(=O)c1ccc(Br)cc1`, the “hERG current change (%, negative = inhibition) at 10uM” value is on record as -6.8%.

In the case of `Cc1cc(N2C(=O)C(O)=C(C(=O)c3ccco3)C2c2ccc(O)cc2)no1` (stereo not shown), the “hERG current change (%, negative = inhibition) at 10uM” value stood at 20.7%.

Turning to `Cc1cc(=O)[nH]c(SCC(=O)O)c1C#N`, the “hERG current change (%, negative = inhibition) at 10uM” value was found to be 23.5%.

Turning to `Cc1cc(C(=O)NC2CCCCC2)c2cc(F)ccc2n1`, the “hERG current change (%, negative = inhibition) at 10uM” value was 7.5%.

With `CC(C)C(NS(=O)(=O)c1cccs1)C(=O)N1CCc2ccccc2C1` (stereo not shown), the “hERG current change (%, negative = inhibition) at 10uM” value turned out to be 5.66%.

Take `Cc1ccc(N2C(=O)N(CC(=O)Nc3cc(F)ccc3C)C(=O)C2C)cc1` (stereo not shown): the “hERG current change (%, negative = inhibition) at 10uM” value is 13%.

In the case of `COCCn1c(N)c(N(Cc2ccccc2)C(=O)CSCC(=O)Nc2ccc(C)cc2)c(=O)[nH]c1=O`, the “hERG current change (%, negative = inhibition) at 10uM” value turned out to be 3.11%.

Consider `Cc1ccccc1N1CCN(C(=O)CN2C(=O)c3ccccc3C2=O)CC1`, for which the “hERG current change (%, negative = inhibition) at 10uM” value was -11.8%.

Turning to `Cc1cc(C)c(C#N)c(SCS(=O)c2ccc(C(C)(C)C)cc2)n1` (stereo not shown), the “hERG current change (%, negative = inhibition) at 10uM” value is reported as -28.5%.

For `Cc1c(/C=N/NC(=O)c2cc(Br)ccc2O)c(=O)n(C)c(=O)n1C`, the “hERG current change (%, negative = inhibition) at 10uM” value is 3.23%.

In the case of `Cc1ccc(C)c(S(=O)(=O)N2CCCOC2CNC(=O)C(=O)NCCC2=CCCCC2)c1` (stereo not shown), the “hERG current change (%, negative = inhibition) at 10uM” value is listed as 9.43%.

As to `COc1cc(CCCN2C(N)=NC[C@@H]2Cc2ccccc2)cc(OC)c1OC`, the “hERG current change (%, negative = inhibition) at 10uM” value is on record as 13.3%.

On to `O=C(O)CC1=C(Nc2ccccc2)C(=O)N(c2ccccc2)C1c1ccc(F)cc1` (stereo not shown), for which the “hERG current change (%, negative = inhibition) at 10uM” value is -10.6%.
